The values that follow come from publication PMC4336329 (PLoS ONE, 2015).

Screen size: about 310,000 compounds; about 2,200 (0.71%) showed an effect of 50% or more. The effect is printed as a negative number. Some of the results follow.

This test deals with human ether-à-go-go-related gene (hERG) potassium channel (human, UniProt Q12809). Description: primary screen, population patch clamp on CHO cells stably expressing hERG.
Chain of human ether-à-go-go-related gene (hERG) potassium channel (Q12809 whole entry, looked up): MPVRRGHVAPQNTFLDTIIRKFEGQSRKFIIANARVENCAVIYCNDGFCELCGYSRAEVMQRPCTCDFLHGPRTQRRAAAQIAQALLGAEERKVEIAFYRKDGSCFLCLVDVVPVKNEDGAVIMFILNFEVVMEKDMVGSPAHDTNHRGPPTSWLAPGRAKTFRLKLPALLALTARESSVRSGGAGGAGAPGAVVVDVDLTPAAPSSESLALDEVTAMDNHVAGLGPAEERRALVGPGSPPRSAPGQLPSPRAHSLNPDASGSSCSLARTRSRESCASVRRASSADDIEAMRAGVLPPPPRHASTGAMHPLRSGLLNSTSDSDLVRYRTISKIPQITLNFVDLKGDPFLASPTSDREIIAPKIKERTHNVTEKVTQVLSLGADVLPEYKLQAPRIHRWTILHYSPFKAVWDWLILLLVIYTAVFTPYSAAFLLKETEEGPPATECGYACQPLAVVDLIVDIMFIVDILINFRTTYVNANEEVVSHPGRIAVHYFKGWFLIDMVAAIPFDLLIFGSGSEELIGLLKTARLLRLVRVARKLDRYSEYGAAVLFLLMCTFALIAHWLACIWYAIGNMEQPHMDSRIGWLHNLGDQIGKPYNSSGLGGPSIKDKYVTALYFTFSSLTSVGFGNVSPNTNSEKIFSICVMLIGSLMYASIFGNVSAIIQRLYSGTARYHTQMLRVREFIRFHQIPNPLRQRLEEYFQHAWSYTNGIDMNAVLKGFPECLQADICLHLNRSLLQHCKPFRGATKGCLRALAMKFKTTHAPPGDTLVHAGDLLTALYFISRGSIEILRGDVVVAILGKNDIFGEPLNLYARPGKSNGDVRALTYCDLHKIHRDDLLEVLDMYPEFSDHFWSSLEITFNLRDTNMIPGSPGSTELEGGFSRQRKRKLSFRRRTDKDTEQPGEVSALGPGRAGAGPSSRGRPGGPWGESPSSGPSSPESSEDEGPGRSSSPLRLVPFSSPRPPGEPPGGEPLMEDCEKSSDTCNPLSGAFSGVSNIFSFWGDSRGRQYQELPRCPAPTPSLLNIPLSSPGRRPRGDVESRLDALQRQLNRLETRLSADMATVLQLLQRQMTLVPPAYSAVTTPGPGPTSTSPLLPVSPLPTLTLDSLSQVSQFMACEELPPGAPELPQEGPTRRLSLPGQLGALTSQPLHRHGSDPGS
With `O=C1COc2ccc(C(=O)CSc3nnc(-c4cccs4)n3Cc3ccccc3)cc2N1`, the “hERG current change (%, negative = inhibition) at 1uM” value was -3.8%.
The result for `COc1ccc(-c2csc3nc(-c4ccccc4F)oc(=O)c23)cc1` reads 11.3%; that for `CC(=O)Nc1ccc2nc(-c3ccc(Br)o3)[nH]c2c1`, 16.2%.
Turning to `CC1c2cc3c(cc2CCN1S(=O)(=O)c1ccccc1)OCCCO3` (stereo not shown), the “hERG current change (%, negative = inhibition) at 1uM” value is on record as 8.28%.
Regarding `CC(=O)c1sc(NC(=O)c2cccc3ccccc23)nc1C`, the “hERG current change (%, negative = inhibition) at 1uM” value worked out at 10.2%.
In the case of `Cc1ccc(NC(=O)Nc2cc(Cl)ccc2C2COC(=O)C2=N)cc1` (stereo not shown), the “hERG current change (%, negative = inhibition) at 1uM” value worked out at 13.1%.
As to `Cc1nc(-c2ccc(S(=O)(=O)N3CCOCC3)cc2)cs1`, the “hERG current change (%, negative = inhibition) at 1uM” value is 12.1%.
The same measure for `CCOC(=O)CSc1nnc(CNc2ccc(Cl)cc2)n1-c1ccccc1`: 5.58%; for `CCCCCCn1c(N2CCN(c3ccccc3)CC2)nc2c1c(=O)[nH]c(=O)n2C`: -20.5%; for `Nc1ncnc(Sc2ccccc2)c1[N+](=O)[O-]`: 7.4%.
Turning to `Cc1ccc(NS(=O)(=O)c2ccc3c(c2)NC(=O)C(C)C(=O)N3)cc1C` (stereo not shown), the “hERG current change (%, negative = inhibition) at 1uM” value was determined as 9.26%.
The result for `CCc1c(C(=O)Nc2ccc(OC)c(Cl)c2)[nH]c(C)c1C(C)=O` reads -1.95%; that for `COC(=O)c1cccc(NC(=O)CSCc2ccccc2)c1`, 10.1%.
For the compound `COc1ccccc1NS(=O)(=O)c1ccc(NC(=O)c2ccncc2)cc1`, the “hERG current change (%, negative = inhibition) at 1uM” value turned out to be 2.55%.
Take `COc1cccc2cc3c(=O)oc4ccccc4c3nc12`: the “hERG current change (%, negative = inhibition) at 1uM” value is recorded as -1.32%.
For `CCCNc1c(NS(=O)(=O)c2cccs2)c(=O)oc2ccccc12`, the “hERG current change (%, negative = inhibition) at 1uM” value was 4.34%.
The result for `CCc1ccc(-c2cc(C)no2)cc1S(=O)(=O)N1CCN(c2ccccc2)CC1` reads 5.22%; that for `Cc1cc(NC(=O)CSc2ccnc(=O)[nH]2)no1`, -4.46%; that for `COc1ccc(-c2nn3c(-c4ccccc4)nnc3s2)cc1`, 13%.
`CN1C(=O)C(O)(CC(=O)/C=C/c2ccco2)c2cc(Br)ccc21` (stereo not shown): the “hERG current change (%, negative = inhibition) at 1uM” value came out at 0.482%.
For the compound `CCOc1cc(C=O)c(Br)cc1OC1CCCC1`, the “hERG current change (%, negative = inhibition) at 1uM” value turned out to be 11.4%.
In the case of `Cc1cccc(N2CC(C(=O)OCc3ccc([N+](=O)[O-])cc3)CC2=O)c1` (stereo not shown), the “hERG current change (%, negative = inhibition) at 1uM” value is on record as -16.8%.
`COc1ccc(N2C(=O)CCC(C(=O)N3CCOCC3)C2c2ccc(F)cc2)cc1` (stereo not shown): the “hERG current change (%, negative = inhibition) at 1uM” value came to 14.4%.
Take `Cc1cc(CNC(=O)CC2C(=O)NCCN2Cc2ccccc2)nn1C` (stereo not shown): the “hERG current change (%, negative = inhibition) at 1uM” value was 12%.
As to `COc1ccccc1N1CCN(Cc2cn[nH]c2-c2ccc(F)cc2)CC1`, the “hERG current change (%, negative = inhibition) at 1uM” value was -12%.
